The RNAGym collection of RNA variant scans (doi:10.7554/elife.90254)
Read counts are not given, so values of variants with three or more changes are uncertain.

B1: LINE1-full (parent)
chain: UACGUAGGUGGUUUUCCCCUGAUAGUGCUAAGGGGGCCUGGAAGUUUGGACUGGGCAGAGCUCAACACAGCGUGGCAAAGUGGCUGUGGCUAGACUGCCUCUCUGGAUUCCUCGUCACUCAGCAGGGCAUCUCUGAGAGAAAUGCC

Variants of: B1
Assay: self-cleavage, relative activity (ratio to wild type); higher = more cleavage; in vitro, sequencing; the parent is a self-cleaving ribozyme
Work on U9A A22G U130G yielded a self-cleavage of 1.08.
With G32A U81A A136G the self-cleavage was 1.84.
For U29C A30U U100A, the self-cleavage was 1.28.
Work on U39A U46C A129G yielded a self-cleavage of 0.33.
Work on U14C A50G A92G yielded a self-cleavage of 0.
U9C U52G G105A showed a self-cleavage of 1.69.
With A30U A43G G139A the self-cleavage was 0.57.
U14C U15C A65G U119C U132C showed a self-cleavage of 0.66.
U13C U14C U85A U108C G126A gave a self-cleavage of 0.25.
A57G C71U G114A A124U gave a self-cleavage of 0.14.
Variant A22G G89A U96A A121U has a self-cleavage of 0.04.
Variant G40U G49A U52C A65G U85A has a self-cleavage of 0.08.
For U9A U13A U23A A117G C123U, the self-cleavage was 1.04.
U52A U100C A124U showed a self-cleavage of 1.88.
Work on U13C A121U U132C yielded a self-cleavage of 1.28.
For G54C U62C A78G, the self-cleavage was 0.06.
In the case of A77C U85C A124G G125U, the self-cleavage is reported as 0.
Work on G4A U13C A124U yielded a self-cleavage of 0.
In the case of U15C A42G U62A, the self-cleavage is reported as 0.16.
U5C U9A U39C A64G showed a self-cleavage of 0.6.
Variant U45C A121G A141G A142G has a self-cleavage of 0.98.
U12C A31G G34U U81A G83A U104A gave a self-cleavage of 1.68.
A2G U9C U14C C38U U87C gave a self-cleavage of 0.61.
Variant U13C G32U A43G A142G has a self-cleavage of 0.98.
With C19U U87C U115A the self-cleavage was 0.07.
Variant U52A U132C A140G has a self-cleavage of 0.27.
A64U C71G A141G A142G showed a self-cleavage of 0.16.
Work on U14C A67G U104A yielded a self-cleavage of 0.12.
Work on U13C A59G G74A yielded a self-cleavage of 0.
Variant U52C U62C A94U has a self-cleavage of 0.08.
U20C U104C A141G showed a self-cleavage of 1.95.
In the case of U13C A78U U87C A138G, the self-cleavage is reported as 0.45.
Work on A77G U85C U102A yielded a self-cleavage of 0.59.
U39A A92U A121G gave a self-cleavage of 0.77.
U5C G80A A136G gave a self-cleavage of 2.8.
For U20C A24U A50C, the self-cleavage was 1.23.
Variant U12C U23C G36A A67U has a self-cleavage of 0.24.
U5A A24U C38U A57C A94U C111U gave a self-cleavage of 0.06.
A78G G88C A142G showed a self-cleavage of 0.13.
Variant A6U A77G U87A A92G U100A U119C U132A has a self-cleavage of 0.
With U13C U47C A69G G70C U108C the self-cleavage was 0.
U12G U62C G105U A142U showed a self-cleavage of 0.1.
A43G A59G U102C gave a self-cleavage of 0.
Variant A43G U47C U52A A94G has a self-cleavage of 0.
A22U A42G A43G C71U U115C gave a self-cleavage of 1.18.
U45A U46C U73A G114A gave a self-cleavage of 1.47.
Variant U62C U115A A136G A140U has a self-cleavage of 0.13.
A92G A117U A136G showed a self-cleavage of 0.1.
For U119C U130C A136G, the self-cleavage was 1.72.
With A50G A64G U73A the self-cleavage was 0.64.
Work on U26C A79U U134C yielded a self-cleavage of 2.79.
For U26C U104A C116U, the self-cleavage was 1.1.
U20C U73A U91C U132A U134C gave a self-cleavage of 0.43.
With G33U U115G U130C A138U the self-cleavage was 1.08.
U9A U52A A65U G126A U134A A138G showed a self-cleavage of 0.2.
Work on U12C U13C G144A yielded a self-cleavage of 1.1.
For A6G U73A A77U, the self-cleavage was 1.14.
Variant U39C C131U A140G A141G has a self-cleavage of 1.31.
In the case of A57G A65U U134C, the self-cleavage is reported as 0.3.
Variant U9C U62C U109C has a self-cleavage of 0.
In the case of U14A U81C U132C, the self-cleavage is reported as 0.81.
With U85A C103U U143C the self-cleavage was 0.05.
With A22G A107G U143A the self-cleavage was 0.77.
With U13G A57G U108C the self-cleavage was 0.68.
A42G A67C U102C G114A showed a self-cleavage of 0.
Variant A6G U14C U46C has a self-cleavage of 0.75.
With U15C U45G C98G U119C the self-cleavage was 0.31.
U39A U45G U87C showed a self-cleavage of 0.24.
With A2G U96C C128U the self-cleavage was 0.14.
Variant G34U U52A A124U has a self-cleavage of 1.32.
In the case of U13A U14C U62C A121C, the self-cleavage is reported as 0.
In the case of U26C U73G C99A U112C, the self-cleavage is reported as 0.43.
With A94G G125U A142G the self-cleavage was 0.22.
G11A A64U A121U A129U A136G showed a self-cleavage of 0.39.
For A31U A64U U134C, the self-cleavage was 0.51.
With U14A A50G A57G the self-cleavage was 0.98.
Work on A30G U39A C146G yielded a self-cleavage of 1.43.
Variant U14C U87C U109C has a self-cleavage of 0.
U14C U96A U119C showed a self-cleavage of 0.16.
Work on A2G A22G A43G C66A A79G U91C yielded a self-cleavage of 0.3.
U15C G83A A124C A138G gave a self-cleavage of 1.62.
Work on U39A U81C G89C yielded a self-cleavage of 0.09.
In the case of A6C C51U U96C U130C, the self-cleavage is reported as 0.23.
U15A U46A U143C showed a self-cleavage of 0.62.
For U20C U52A U130C, the self-cleavage was 1.93.
For A117G U132C A138U A140C, the self-cleavage was 0.84.
With A67U G72A U112C A124U A129G the self-cleavage was 0.03.
Variant A6G U46A U112C has a self-cleavage of 1.25.
Variant G34U U47A U73A has a self-cleavage of 1.83.
U14C A107G A121G U130C showed a self-cleavage of 0.
For U20C A24U U26A A43U G80A, the self-cleavage was 1.21.
For U46C U52C U73A U102C, the self-cleavage was 1.39.
Work on A42G U45A A69G C101U U134A yielded a self-cleavage of 0.48.
For U20A A57G A141U U143A, the self-cleavage was 1.24.
U13A A31U U96C gave a self-cleavage of 0.04.
Work on A65U A121U G126A yielded a self-cleavage of 0.11.
Work on G34A A65U A92G A121G yielded a self-cleavage of 0.12.
A30G U81C C120A U132C C145U showed a self-cleavage of 1.15.
In the case of U5C G74A U132C, the self-cleavage is reported as 1.37.
For C68A A78G U91C, the self-cleavage was 0.03.
With G40U U46A U73A the self-cleavage was 1.52.
U14C U73A U87C U132C gave a self-cleavage of 0.
G8A A69U U81C U109C showed a self-cleavage of 0.
In the case of G36A U73C G97U, the self-cleavage is reported as 0.03.
A43G A78G A79U A140U showed a self-cleavage of 1.08.
For A59G A77G A124G, the self-cleavage was 0.
G7U U26C U96C showed a self-cleavage of 0.24.
U1C U12G A42G gave a self-cleavage of 0.
U52C A77G U112A gave a self-cleavage of 1.08.
With U9A A22G A78C A79U U104C the self-cleavage was 2.53.
Work on A57U A136G A141G yielded a self-cleavage of 0.16.
Variant A6U A140G A142G has a self-cleavage of 1.31.
With A22G U52A G80A U108C G114A the self-cleavage was 2.69.
For A69G A78U U109C, the self-cleavage was 0.91.
U52C U102A A138G showed a self-cleavage of 2.77.
For A6G U46C C56U, the self-cleavage was 0.52.
C90U C120U A138G A142G showed a self-cleavage of 0.12.
Variant U13C U62C A117G U132C A140G has a self-cleavage of 0.
Work on A43G U81C U130C A136G yielded a self-cleavage of 1.84.
Variant G35A A69U U81A has a self-cleavage of 0.02.
Variant U14C U39C A77G U143C has a self-cleavage of 1.41.
In the case of A30G A59U U100C, the self-cleavage is reported as 0.8.
U13C G40A A57G C98U gave a self-cleavage of 0.07.
Variant A6U A22U U39A A64U A69G U108C has a self-cleavage of 0.66.
A59G G75A A77G gave a self-cleavage of 0.02.
Variant U9C A59G U104A A140G has a self-cleavage of 0.1.
In the case of G32A G35U U39A U143A, the self-cleavage is reported as 1.24.
Variant A2G U26C U45G has a self-cleavage of 0.
Work on A69G U73C A78G G83C A138U yielded a self-cleavage of 0.
For U13A C28A A94G U104C U132A, the self-cleavage was 0.24.
In the case of A24G U73C U100C, the self-cleavage is reported as 2.3.
G48A A94G G126A showed a self-cleavage of 0.11.
Work on A2G A6U A42U U134A yielded a self-cleavage of 0.65.
Work on A64U A124U A142G yielded a self-cleavage of 0.11.
For A31U A50G U100C A141G, the self-cleavage was 1.86.
C71A A78U A136G showed a self-cleavage of 0.38.
With U96C U100C A121U the self-cleavage was 0.48.
U26C G54C A79G G86A C99A U130C gave a self-cleavage of 0.02.
U52A A69U U85C showed a self-cleavage of 0.36.
With A50G U134C A142G the self-cleavage was 0.96.
Variant A43G G54A A78G has a self-cleavage of 0.19.
With U9G U62C U119C C120A A140G the self-cleavage was 0.
Work on U45A A59G A129G A140C yielded a self-cleavage of 0.32.
For U9C A79G C146A, the self-cleavage was 1.71.
In the case of U14C C56U C71U, the self-cleavage is reported as 0.1.
A6G U12C A141G showed a self-cleavage of 2.23.
With U26A C38U C76U the self-cleavage was 1.01.
For U14C A43G U45C A77U, the self-cleavage was 0.78.
In the case of U14C A64U U119C C133U U143A, the self-cleavage is reported as 0.74.
With U29C U108A A141G the self-cleavage was 1.53.
Work on A79U A117G A140G yielded a self-cleavage of 2.09.
With A92G U119A U132A the self-cleavage was 0.22.
In the case of A43G G83A U87C A121G, the self-cleavage is reported as 0.14.
Work on U39C G40U A79G yielded a self-cleavage of 1.14.
For A67G U115A G139A, the self-cleavage was 0.74.
For U9C A92U U143C, the self-cleavage was 1.65.
With U14C U109A U143C the self-cleavage was 0.84.
In the case of U5C U62A U73C G97A U109C U119C, the self-cleavage is reported as 0.
Work on A67U A78G A107G A129G yielded a self-cleavage of 0.17.
U15C U112A C123U showed a self-cleavage of 1.5.
U26A U39A A107G gave a self-cleavage of 0.82.
Variant G32A U45C U47C U73C A77U U87C C116U U119C has a self-cleavage of 2.3.
Work on U1C U15A U102C U119C yielded a self-cleavage of 2.22.
U12C A77U C90U showed a self-cleavage of 0.06.
In the case of U13A U91C A124G, the self-cleavage is reported as 0.48.
With C3U U13A A69U A121G U130A A136G the self-cleavage was 0.17.
With U5A U12C C90U the self-cleavage was 0.03.
